From publication PMC4336329 (PLoS ONE, 2015)
Hit rate of the full screen: of about 310,000 compounds, about 2,200 (0.71%) showed an effect of 50% or more. The effect is printed as a negative number. Some of the results follow.

Biological target: human ether-à-go-go-related gene (hERG) potassium channel (human, UniProt Q12809)
Assay: primary screen, population patch clamp on CHO cells stably expressing hERG

Sequence of human ether-à-go-go-related gene (hERG) potassium channel (Q12809 whole entry, looked up): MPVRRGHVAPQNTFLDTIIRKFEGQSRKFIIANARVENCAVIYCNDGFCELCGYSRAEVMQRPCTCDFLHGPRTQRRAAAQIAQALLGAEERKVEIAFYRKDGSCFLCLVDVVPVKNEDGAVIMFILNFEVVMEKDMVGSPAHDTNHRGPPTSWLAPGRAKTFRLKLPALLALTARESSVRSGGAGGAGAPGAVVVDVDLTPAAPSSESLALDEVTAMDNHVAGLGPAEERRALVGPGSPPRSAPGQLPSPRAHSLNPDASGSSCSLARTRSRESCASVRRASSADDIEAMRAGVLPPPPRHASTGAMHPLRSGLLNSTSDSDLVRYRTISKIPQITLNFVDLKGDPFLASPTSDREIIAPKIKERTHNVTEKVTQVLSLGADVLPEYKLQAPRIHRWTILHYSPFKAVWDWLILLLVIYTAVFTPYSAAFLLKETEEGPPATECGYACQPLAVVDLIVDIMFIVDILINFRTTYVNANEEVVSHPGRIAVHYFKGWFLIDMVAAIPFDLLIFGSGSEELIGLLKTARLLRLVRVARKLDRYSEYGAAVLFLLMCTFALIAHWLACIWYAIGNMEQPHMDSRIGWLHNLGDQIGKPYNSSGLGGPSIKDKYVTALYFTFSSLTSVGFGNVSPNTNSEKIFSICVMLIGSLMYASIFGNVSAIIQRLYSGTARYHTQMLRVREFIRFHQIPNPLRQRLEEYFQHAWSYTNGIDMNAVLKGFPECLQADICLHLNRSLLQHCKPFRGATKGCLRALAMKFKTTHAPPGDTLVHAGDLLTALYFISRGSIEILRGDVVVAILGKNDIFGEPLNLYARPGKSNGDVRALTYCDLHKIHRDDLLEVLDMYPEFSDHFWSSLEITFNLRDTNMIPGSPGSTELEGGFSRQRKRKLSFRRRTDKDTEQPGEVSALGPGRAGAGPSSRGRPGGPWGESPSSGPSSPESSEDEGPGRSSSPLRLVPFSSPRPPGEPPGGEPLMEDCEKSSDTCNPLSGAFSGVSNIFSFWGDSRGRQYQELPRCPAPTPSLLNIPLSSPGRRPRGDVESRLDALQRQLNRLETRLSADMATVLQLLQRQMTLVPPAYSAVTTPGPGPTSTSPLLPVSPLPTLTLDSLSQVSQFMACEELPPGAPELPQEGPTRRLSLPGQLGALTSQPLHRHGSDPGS

Row | Structure (SMILES) | hERG current change (%, negative = inhibition) at 1uM [%]
1 | O=c1[nH]c2cc3c(cc2cc1CN(Cc1ccco1)C(=S)NCCCN1CCOCC1)OCCO3 | 15
2 | O=C1OC(C(=O)NCc2ccccc2)Cc2ccccc21 (centres unmarked) | 8.68
3 | Cc1ncc(CNC(=O)N(CCCl)N=O)c(N)n1.Cl | 8.14
4 | CC1(C)NC(=O)N(CC(O)COc2cccc(F)c2)C1=O (centres unmarked) | 5.39
5 | COc1ccc(OC)c(C2=NOC(C(=O)N3CCC4(CC3)OCCO4)C2)c1 (centres unmarked) | 7.59
6 | CCOC(=O)c1ccc(NC(=O)Cn2cccc2)cc1 | -2.65
7 | COc1ccc(NC(=S)NCCc2c[nH]c3ccc(OC)cc23)c(OC)c1 | 11.5
8 | COc1ccc(Cl)cc1N(CC(=O)Nc1ccccc1C(=O)N1CCCC1)S(C)(=O)=O | 9.56
9 | COc1ccccc1NC(=O)Nc1cccnc1 | 7
10 | O=C(c1ccccc1)c1sc(N2CCOCC2)nc1-c1ccccc1 | -7.74
11 | COC(=O)Cn1cnc2c(cnn2-c2ccccc2)c1=O | 11.3
12 | COc1ccc(/C=C(/NC(=O)c2ccccc2)C(=O)NCc2ccncc2)cc1 | -12.6
13 | Cc1[nH]nc2c1C(c1cccs1)C1=C(CC(C)(C)CC1=O)N2 (centres unmarked) | 7.15
14 | Cc1ccc(S(=O)(=O)N2CCCCC2C(=O)NCc2ccco2)cc1 (centres unmarked) | 5.24
15 | Cc1cnc(CNC(=O)c2ccc3oc(C(C)C)nc3c2)[nH]1 | 2.8
16 | O=C(c1ccccn1)N1CCN(S(=O)(=O)c2ccc(F)cc2)CC1 | 3.93
17 | Cc1nc(NC(=O)c2ccc(-c3cc4ccccc4oc3=O)cc2)ccc1Br | 17.3
18 | COc1cc(CN2CCNC(=O)C2CC(=O)N(C)Cc2ncc[nH]2)cc(OC)c1 (centres unmarked) | 12.8
19 | CCNC(=S)/N=C(\N)Nc1nc(C)c2cc(C)ccc2n1 | 6.88
20 | Cc1ccc(C)c(C(=O)COC(=O)Cn2[nH]c(=O)c3ccccc3c2=O)c1 | 9.74
21 | COc1ccccc1C(=O)Nc1onc(C)c1C#N | 1.84
22 | CNCC(=O)O | 7.06

Row | Structure (SMILES) | hERG current change (%, negative = inhibition) at 1uM [%]
23 | COc1ccc(NC(=O)c2sc(Cl)nc2-c2ccccc2)cc1 | 9.86
24 | Cc1ccc(NC(=O)/C(=C/c2ccc([N+](=O)[O-])cc2)NC(=O)c2ccccc2)cc1 | 2.69
25 | CCOc1ccc(CCNC(=O)COC(=O)c2cccc(OC)c2O)cc1OCC | 13.7
26 | C/C=C/Cn1c(N(C)Cc2ccccc2)nc2c1c(=O)[nH]c(=O)n2C | 1.79
27 | CN1CCN(C(=O)c2ccc3c(c2)N(Cc2ccc(F)cc2)C(=O)c2ccccc2S3=O)CC1 (centres unmarked) | 18.2
28 | O=C(O)CN(c1ccccn1)S(=O)(=O)c1ccc(Cl)cc1 | 12.5
29 | CCCc1cc(=O)n2[nH]c(-c3cc(OC)c(OC)c(OC)c3)nc2n1 | 11.3
30 | CCCCCOC(=O)C1=C(C)Nc2nnnn2C1c1ccccc1Cl (centres unmarked) | 12.2
31 | N#CC(c1ccc(Cl)nn1)c1ccc(Cl)cc1Cl (centres unmarked) | 8.39
32 | CCCC(=O)Nc1nc2c(OC)ccc(OC)c2s1 | 3.46
33 | O=C(NCCc1ccccc1F)/C(=C/c1cccnc1)NC(=O)c1ccccc1 | -3.24
34 | N#Cc1ccc(NC(=O)COC(=O)CCc2ccc(S(=O)(=O)N3CCCCC3)cc2)cc1 | 11.8
35 | O=C1CCN(C(=S)NCc2ccccc2)CC1 | 16.4
36 | O=S(=O)(NNc1ccc(F)cc1F)c1cccc(Cl)c1 | 22.6
37 | COc1ccc(CCC(=O)OCC(=O)N(CC(C)C)c2c(N)n(Cc3ccccc3)c(=O)[nH]c2=O)cc1 | 8.04
38 | O=C(CCCn1c(=S)[nH]c2ccc(Br)cc2c1=O)NCC1CCCO1 (centres unmarked) | 23.4
39 | CCc1nc(SCC(=O)Nc2cc(C)on2)c2c(=O)n(C)c(=O)n(C)c2n1 | 19.1
40 | Cc1ccc(NC(=O)N(CCC(=O)O)Cc2ccccc2)cc1 | 13.6
41 | Cc1oc2c(C)c3oc(=O)c(CCC(=O)NCCCN4CCOCC4)c(C)c3cc2c1C | 12.5
42 | Cn1c(=O)c(C(=O)COC(=O)c2cc(-c3ccco3)nc3ccccc23)c(N)n(Cc2ccccc2)c1=O | -7.17
43 | COc1cc(C(=O)NC2CCN(Cc3nnnn3Cc3cccs3)CC2)cc(OC)c1OC | 12.9
44 | CC(C)(OC1OC(CO)C(O)C(O)C1O)[C@H]1Oc2ccc3ccc(=O)oc3c2[C@H]1O (some centres unmarked) | 13.9
